# This is one part of the list. The energies were worked out here from pooled read counts, against the library average; single values are noisy.
# Target: T1, Pho4 (S. cerevisiae) (UniProt P07270)
# T1 sequence: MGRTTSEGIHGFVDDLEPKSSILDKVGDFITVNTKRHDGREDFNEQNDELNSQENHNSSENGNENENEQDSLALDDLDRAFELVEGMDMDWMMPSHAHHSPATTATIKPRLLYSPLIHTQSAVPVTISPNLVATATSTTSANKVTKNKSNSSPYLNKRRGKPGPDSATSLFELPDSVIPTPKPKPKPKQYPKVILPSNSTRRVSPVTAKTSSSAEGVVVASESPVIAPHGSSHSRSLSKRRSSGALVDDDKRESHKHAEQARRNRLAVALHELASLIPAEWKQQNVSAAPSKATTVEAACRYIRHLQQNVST
# Test: relative binding free energy (BET-seq); higher = weaker binding
# Settings: reference: library average
row,Sequence,relative binding free energy [kcal/mol]
1,GGGTGCACGTGAATTG,0.3
2,TGGGGCACGTGGATAT,-0.09
3,TTTTACACGTGCGGAG,0.15
4,GTAGTCACGTGAAGGT,0.36
5,TTGGACACGTGGGAGC,-0.11
6,ATTTGCACGTGTATAA,-0.1
7,TGTATCACGTGGCTGG,0.15
8,GGGGTCACGTGGGCAT,0.04
9,GTGCTCACGTGGAGTG,0.2
10,TGGGTCACGTGTCCGG,0.14
11,GGCTCCACGTGTTGTG,0.1
12,GGTTGCACGTGTGTTC,0.13
13,CGTTTCACGTGCATTG,0.2
14,TGATACACGTGTTGAG,0.05
15,GTGTTCACGTGCGCTT,0.15
16,GTACTCACGTGTTAGT,0.29
17,GCCAGCACGTGTGGTG,0.14
18,TCAATCACGTGAGGGT,0.3
19,TTATGCACGTGAGGGA,0.14
20,GGCGGCACGTGTACGT,0.02
21,TATCTCACGTGTTATG,0.21
22,AAGATCACGTGACTGG,0.44
23,GGAATCACGTGATGGA,0.38

row,Sequence,relative binding free energy [kcal/mol]
1,AGGTGCACGTGGCTTG,-0.17
2,TTGGGCACGTGGTGTC,-0.07
3,CTGTGCACGTGAAGGT,0.2
4,ATGTTCACGTGTGCGT,0.35
5,TATGACACGTGGGGTG,-0.24
6,ATGTTCACGTGGTTGA,0.32
7,GGAATCACGTGAGTTG,0.17
8,TAGGACACGTGGGCCG,-0.02
9,GTTTACACGTGGTAAA,0.06
10,TCTAACACGTGTGAGT,0.14
11,GAAGTCACGTGATGGG,0.39
12,GGACTCACGTGTGGAG,0.31
13,ATGTGCACGTGCGGAA,-0.06
14,GGTATCACGTGGTCTG,0.11
15,GTAGTCACGTGTAGCG,0.01
16,GCGGGCACGTGGGGTG,-0.24
17,GGGTTCACGTGACGGT,0.46
18,TGTGGCACGTGTTTAC,-0.12
19,TGTTACACGTGATTAT,0.2
20,TGGGTCACGTGTATCG,0.09
21,GTGTTCACGTGGATGA,0.27
22,AGGGACACGTGCAGTG,0.05
23,AGGTGCACGTGTTTAG,0.01

row,Sequence,relative binding free energy [kcal/mol]
1,CTATACACGTGAGTGG,0.03
2,GAGTGCACGTGGGGAC,-0.06
3,TGGGGCACGTGTAAGC,-0.01
4,TGGTGCACGTGAAAGG,0.21
5,AAATTCACGTGGATTG,0.28
6,AGTTCCACGTGGATGG,0.04
7,TGGGGCACGTGGTCTC,-0.11
8,ATGATCACGTGTGTCG,0.12
9,TGAGGCACGTGCGGGG,-0.24
10,TTGTACACGTGTTTTA,-0.03
11,AGAGTCACGTGTAAGG,0.34
12,GAGCTCACGTGGTGGG,0.15
13,TTATGCACGTGCGAGG,-0.1
14,TGAGCCACGTGGTATG,-0.29
15,GTACTCACGTGGGTTG,-0.02
16,TAGGGCACGTGAACTG,0.22
17,TTCGGCACGTGTATGG,0.09
18,GCCGGCACGTGGGGTT,-0.11
19,TTACTCACGTGGGGTA,0.05
20,CGGTGCACGTGGGTGC,-0.12
21,CTGTTCACGTGGTCGT,0.01
22,TCGTTCACGTGTTGGG,0.36
23,TATGCCACGTGTGTGC,-0.1

row,Sequence,relative binding free energy [kcal/mol]
1,GCTGGCACGTGCGGTG,-0.08
2,GTGCTCACGTGGCTGG,0.15
3,TATGGCACGTGGTTTC,-0.16
4,GACAGCACGTGTTTTG,-0.04
5,TGAGCCACGTGATGTG,-0.01
6,AGAAGCACGTGTAGTT,-0.04
7,AATGCCACGTGTAGTT,-0.04
8,TAGTACACGTGTGGCT,0.14
9,CGTAGCACGTGATGTT,-0.13
10,TTATCCACGTGGGGAT,-0.2
11,GACAGCACGTGGGAGG,-0.14
12,CCGTACACGTGGGTGT,-0.11
13,CTTATCACGTGTCGGG,0.34
14,TTAGGCACGTGTCTAG,-0.14
15,TGAGACACGTGCGTTT,0.06
16,TTTTTCACGTGCTAAG,0.37
17,GTACTCACGTGAGAGG,0.41
18,GTAGACACGTGGGCGC,0.06
19,ATTAGCACGTGCTTTT,-0.03
20,AATACCACGTGGTGGG,-0.22
21,CAGGGCACGTGATTGG,-0.05
22,TGTATCACGTGATTAA,0.23
23,GTATTCACGTGCAGTG,0.17

row,Sequence,relative binding free energy [kcal/mol]
1,GGTGACACGTGGTAGT,-0.01
2,GTATTCACGTGAGGCA,0.39
3,TGTGGCACGTGACAAT,-0.08
4,GGGATCACGTGTGGGC,0.2
5,TTCAACACGTGGGTTA,-0.18
6,GGAGTCACGTGTATCG,0.22
7,TATATCACGTGCGTGT,-0.02
8,GGTAGCACGTGTTTAC,0
9,TGAGTCACGTGAAGTA,0.4
10,TCAAGCACGTGCGGGG,-0.25
11,TTTAACACGTGTAAAG,0.06
12,GGTAGCACGTGATGGC,0.11
13,GAGAACACGTGTGGTT,0.23
14,GGGGGCACGTGTAGCA,-0.1
15,GGGGACACGTGACTGT,0.05
16,AGATGCACGTGGAAGG,0.08
17,AGTATCACGTGCAGTT,0.08
18,TAAAGCACGTGGGCTT,-0.2
19,GCGGGCACGTGCGGGG,-0.25
20,CGTTGCACGTGTAGTG,0.06
21,AGTTACACGTGACGGT,0.18
22,TTATACACGTGGGAAG,-0.16
23,TCTGTCACGTGTGTAA,0.07

# Reference: the BET-seq Pho4 binding data (Le et al. 2018)
